The results in this text go back to the RNAGym collection of RNA variant scans (doi:10.1093/nar/gkz1192).

Read counts are not given, so values of variants with three or more changes are uncertain.

First the molecules themselves.
B1: CPEB3 Ribozyme (parent)
chain: UAACAGGGGGCCACAGCAGAAGCGUUCACGUCGCAGCCCCUGUCAGAUUCUGGUGAAUCUGCGAAUUCUGCUGUAUAUCUC

This data set covers variants of B1. Put plainly: self-cleavage, relative activity (ratio to wild type); higher = more cleavage; in vitro, sequencing. The procedure, abridged: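 CPEB3 self-cleaving ribozyme mutant libraries were made by rounds of error-prone PCR, barcoded, and transcribed in vitro with T7 RNA polymerase for 5 hours at 37°C. Cleavage occurred during transcription and a 15 min DNase I step before EDTA stop. RNAs were reverse transcribed with template switching and Illumina-sequenced, with DNA sequencing mapping barcodes to variants. Relative activity is the variant's cleaved/total read fraction divided by wild type's (minimum 5 reads), averaged across three batches.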
With A47G U49C U74A, the self-cleavage amounted to 0.34. Take G46C U76A A77G: the self-cleavage is 0.22.

A45G U60A U66C: the self-cleavage was 0.28. The same measure for A45G U76A A77U: 0.74.

For the variant A47G U60C A64G, the self-cleavage worked out at 0.38. The same measure for A45U U60C U78C: 0.4. The same measure for A45U U51C C62G: 0.15. Turning to A45G U51C U60A, the self-cleavage was found to be 0.33. In the case of A47U U60A A77U, the self-cleavage was found to be 0.23.

Turning to A45U C62U C68A, the self-cleavage turned out to be 0.41. The same measure for A45U U54A U58C U78C: 0.12; for A45U A64G U74C: 0.35. The same measure for A45G U69C U76A: 0.56; for U48C A57U A64U A65U: 0.19; for A47U U60A U67C U76C: 0.18. The same measure for A45U A64G U80C: 0; for A45U U58C G63A A64G: 0.17.

On to U48A A56G U60C, for which the self-cleavage is 0.11. The same measure for A45G A56G U72A: 0.15.

With U48C A56U U72C, the self-cleavage stood at 0.27. The same measure for A47G U49A A64U: 0.16. The same measure for A47G U54A U66C C79G: 0.73; for A47U G73U U80C: 1.31; for A45G U58C U72C: 0.21. The same measure for A45G A47G A56U: 0.37.

On to G46A U76C U80C, for which the self-cleavage was 0.16. Turning to A47U A57G U67C, the self-cleavage is 0.06.

For the variant A45U U49G C81U, the self-cleavage was 0.18. Take A45G U54G A56U: the self-cleavage is 0.27.

As for A47G U48C U69G U72A, the self-cleavage was 0.18. As for A45C U69A U72C U76C, the self-cleavage came out at 0.14.

Take A45U U72C U76C: the self-cleavage came to 0.58. A47U U51A U60A U69C: the self-cleavage was found to be 0.14. The same measure for A45G U51C G63A: 0.44; for A47G U48C A57G: 1.18; for A45G U78C C79U: 0.94. The same measure for A45G A64G G73U: 1.1; for A47G U60A U69A A77G: 0.35; for A45G U48C U60A C81U: 0.24. The same measure for G46A U48C A65G: 0.12; for A45G A57G U80C: 0.57.

As to A45G U48C U58A U60C C62U U80C, the self-cleavage was 0.16.

For the variant A47U A57G A77G, the self-cleavage came to 0.21. The same measure for U48C C50A U72A: 0.22.

On to A45G U66C A77G, for which the self-cleavage worked out at 0.36. The same measure for G46A A47G U51C U66C U69A: 0.1.

U48C A57G U72A: the self-cleavage was 0.75. The same measure for A45G U60C G73U: 1.2; for A45U A47C U49C: 0.29. The same measure for A45G U58A U67C U72C: 0.11.

Regarding A47G A56G U78C, the self-cleavage was determined as 0.49.

For A45U U60G C62A, the self-cleavage is 0.34. The same measure for A45U A47G A65U: 0.11; for A45U U48C U51A U54C U78C: 0.12; for A45G U66C U74A U78G: 0.49. The same measure for A47G A64U U69A: 0.23; for A47U C62U U66C U78C: 0.1; for A45G A56U U66C: 0.21.

Regarding A45U U49C U69A U78A, the self-cleavage came to 0.05. The same measure for A47G U51A A75U: 1.17. The same measure for A45G G61C A64U U67C A75C: 0.21. As to A45U G55A U58C C59G U60A, the self-cleavage turned out to be 0.11.

In the case of A45G G61C U66C U72C, the self-cleavage was found to be 0.25. The same measure for U48A U51C U58A U69A: 0.14. Consider A47G A56G G63U U80C, for which the self-cleavage came to 1.1.

As to A45U A47G U66C U78C, the self-cleavage was determined as 0.09.

In the case of A45G U51C U67A U69A, the self-cleavage was 0.41. The same measure for A45U C62U U69C: 0.18.

Turning to A45G A47U A56G, the self-cleavage turned out to be 0.09. The same measure for A45G A47U U58C: 0.23; for A47U A57G U58A U66C: 0.23. The same measure for G46U A64G A65G U80C: 0.24. The same measure for A45G U72A G73A: 1.26; for A45U U60C A65G U66A U78C U80C: 0.12. As for A45U A56G U78C, the self-cleavage came out at 0.16.

Consider A47G G63A A77G, for which the self-cleavage worked out at 0.9.

As to A45U U49C U51A, the self-cleavage is 0.1. The same measure for A45U U72A U78C: 0.39. As to A45G U66A U78C, the self-cleavage was 0.12. The same measure for A45U U51A C71U: 0.35. For the variant A45U U58C C68U, the self-cleavage was found to be 0.08. The same measure for A45G G61C U66C: 0.26; for A47G U48C U54C G63A U76C: 0.11. The same measure for A45G A47U U48C: 0.4; for A45U U49A G70A U72A: 0.12. Consider A45G U48C U69C U72A, for which the self-cleavage came to 0.17.

Take U48C A56G U72C: the self-cleavage is 0.55. For U48C A56G A77U, the self-cleavage was found to be 0.45. The same measure for A45U A57G U67A: 0.22; for G46A G52A G55C: 0.15.

With A45G A56C G61C, the self-cleavage amounted to 0.21. The same measure for A47C U48C U72A: 0.19; for A47G U66C U69C: 0.3; for A47G U49C C71A U80A: 0.13.

Turning to A47U U51A A77U, the self-cleavage came out at 0.54.

As for A45U A65U U66C, the self-cleavage came out at 0.18. The same measure for A47G U51A A57G: 0.2; for A47G U60C U69A U78A: 0.24; for A47G U51C U72A U76A: 0.64.

For the variant A45G A56G U78A, the self-cleavage amounted to 0.69.

For the variant A47G A56G U60C, the self-cleavage stood at 0.21. The same measure for A45G U48C U49C A56U: 0.82; for A45G A47G U54C U60A A64G: 0.13. With G46U A47G U49G C62U A65G, the self-cleavage was determined as 0.08. As for A45U U49C G73A, the self-cleavage amounted to 0.06.

Regarding A45U U54A U78A, the self-cleavage stood at 0.48. The same measure for A47G U51C A57U U80A: 0.19; for A45U A64G U67G A75G: 0.1. The same measure for A45U U67G U80C: 0.1; for U48C A56G U80C: 0.38.

Turning to U48A U58A U67C U78C, the self-cleavage was found to be 0.39. The same measure for A45G U60C U69A: 0.53; for A45U U49C C71A: 0.15; for A47U U51C A75G: 0.37. The same measure for A45G A57G G70U: 0.23. The same measure for A45G A65G U67C: 0.38; for A45G U51A U72A A77U U78C: 0.66. With G46U A64G A65U, the self-cleavage was found to be 0.16.

With A45U U51A U72C U80C, the self-cleavage came out at 0.66. The same measure for A45G U49A U69C: 0.3; for A45G G52A U67A: 0.36; for U48C A57G U60A U72A: 0.25. Take A45G G73A A75G: the self-cleavage stood at 0.99. The same measure for A45U A56G U58C: 0.39; for A45G G46A A56G U72C: 0.06; for G46U U49C G63A: 0.34. The same measure for A47G U67A U69A: 0.24. For the variant U48C A56C A65U A77G, the self-cleavage was 0.13. The same measure for A47C A56G U66G: 0.11; for A45C U54C C62U: 0.1.

On to A45U G53A U60C U72C, for which the self-cleavage worked out at 0.54. The same measure for A45U G52A C79U: 0.79; for A45G U49C U76A: 0.26. The same measure for A45G U49C U76C: 0.12; for A45G G52A U54G A64G: 0.17.

Regarding A47G U60C U66C A75G, the self-cleavage stood at 0.16.

Take U48C A65G U67A U74C U78C: the self-cleavage was 0.26. Regarding A45G A64C C79U, the self-cleavage is 0.23. The same measure for U48C A57U G61A: 0.18; for A47U A56U U78A: 0.2; for U48C A57G U60A U78A: 0.99. Consider A45G U67C U72A, for which the self-cleavage was found to be 0.26.

On to A45G U74C A75U, for which the self-cleavage stood at 1.27. The same measure for A45G C68A A77U: 0.27; for A45G A47C A64G: 0.04; for A45U U51A U54C: 0.36. The same measure for A45U G53U A56U U72G: 0.09; for A45G A64U C79A: 0.28.

On to A45U U58A U66C, for which the self-cleavage stood at 0.28. Consider A47U U60C U67C, for which the self-cleavage came out at 0.14. As for A45G U51C U54A U72C, the self-cleavage turned out to be 0.51. The same measure for A47G U48C U49C C59A U67C: 0.11; for A45G U54G U80C: 0.34; for A47G U54C U60A A64G: 0.11. The same measure for G46A U54C U72A: 0.18; for U48C A64U G73A U78A: 0.68; for U48C A64G U67C: 0.28. The same measure for A45U U51A U58C U74A: 0.1.

As for A45G A57U U72C A77G, the self-cleavage is 0.33.

G46U A65G U69C: the self-cleavage was found to be 0.1. The same measure for A45U U48C C59U U60A U67C C81U: 0.19; for G46A A57G A75G: 0.18.

Turning to A45G U76C U78C, the self-cleavage stood at 0.93. For A45G U69C U74A A77G, the self-cleavage was determined as 0.58. The same measure for U48A U49C A56G U76C A77G: 0.96.

Take A47G U49C A57G: the self-cleavage is 0.16.

On to U48C A65U U72C, for which the self-cleavage was 0.16.
